Reference: PubChem BioAssay AID488969 (Vanderbilt High Throughput Screening Facility, 2010)
Over roughly 110,000 compounds, “z-score” has its median near -0.1; the highest 2% begin near 2. This is one part of the list. Activity calls are given as the source filed them.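 How the source made its calls: active means z-score in the third read window above 3 or below -3; inactive means the rest.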

Target: Metabotropic glutamate receptor 8 (Rattus norvegicus) (UniProt P70579)
Assay: mGluR8 Gi/Go-coupled signaling modulation – cell-based, rat, thallium flux, HTS, primary screen (AID 488969)
Settings: HEK293 rat mGluR8, GIRK (G protein-gated inwardly rectifying potassium channel) thallium flux, FluoZin2; at 10 µM; stronger effect = higher value; submaximal glutamate (EC20) added with thallium

Sequence of UniProt P70579 (P70579 whole entry, looked up): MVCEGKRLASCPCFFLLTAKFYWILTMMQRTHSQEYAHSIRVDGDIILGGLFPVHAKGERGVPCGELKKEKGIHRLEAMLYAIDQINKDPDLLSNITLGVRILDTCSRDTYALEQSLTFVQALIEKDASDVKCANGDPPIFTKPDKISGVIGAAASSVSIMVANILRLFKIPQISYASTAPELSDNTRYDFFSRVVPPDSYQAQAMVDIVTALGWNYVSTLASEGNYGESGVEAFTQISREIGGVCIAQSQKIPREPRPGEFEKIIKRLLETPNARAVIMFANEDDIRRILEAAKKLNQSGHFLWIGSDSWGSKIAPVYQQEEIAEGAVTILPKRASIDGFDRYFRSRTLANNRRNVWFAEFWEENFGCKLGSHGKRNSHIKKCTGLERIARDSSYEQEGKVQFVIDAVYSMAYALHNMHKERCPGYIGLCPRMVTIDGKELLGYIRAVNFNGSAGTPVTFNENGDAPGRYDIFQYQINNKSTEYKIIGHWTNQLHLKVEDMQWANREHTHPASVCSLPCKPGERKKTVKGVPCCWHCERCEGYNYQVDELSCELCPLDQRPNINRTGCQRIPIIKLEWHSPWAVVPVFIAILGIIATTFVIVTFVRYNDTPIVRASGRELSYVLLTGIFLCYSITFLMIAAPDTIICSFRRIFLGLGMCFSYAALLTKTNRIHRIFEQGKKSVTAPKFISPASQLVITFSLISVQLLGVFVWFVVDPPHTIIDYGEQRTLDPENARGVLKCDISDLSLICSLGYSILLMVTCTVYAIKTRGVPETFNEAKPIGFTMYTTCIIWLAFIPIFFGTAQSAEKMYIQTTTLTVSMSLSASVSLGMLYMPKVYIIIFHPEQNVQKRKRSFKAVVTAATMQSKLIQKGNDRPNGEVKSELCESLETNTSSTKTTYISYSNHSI

First: CC(O)CN(Cc1ccc(Cl)cc1)CC(C)O (configuration not stated)
Second: C/C(=N\NS(=O)(=O)c1ccc(Cl)cc1)c1ccc(O)cc1
The z-score of the first is higher: 0.226 for the first, -0.123 for the second.

Compared with `O=C(Nc1cccnc1)C1COc2ccccc2O1` (configuration not stated), `O=C(NCc1ccccn1)Nc1ccc2c(c1)OCO2` is higher in z-score: 0.162 for the first, 0.29 for the second.

First: Cc1ccc(CSCCNC(=O)c2ccc(Cl)c(S(=O)(=O)N3CCOCC3)c2)cc1
Second: Cc1cc(C)n(C(=O)c2ccc(S(=O)(=O)N3CCOCC3)cc2)n1
The z-score of the first is lower: -0.283 for the first, 0.602 for the second.

Going from `Cc1ccc(C2=NN(S(C)(=O)=O)C(c3cccs3)C2)cc1` (configuration not stated) to `CCc1ccc(C2=NN(c3ccc(S(N)(=O)=O)cc3)C(c3ccc(F)cc3)C2)cc1` (configuration not stated), the z-score falls from -0.0177 to -0.695.

First: CC(OC(=O)c1cc2sccc2n1C)C(=O)NCc1cccs1 (configuration not stated)
Second: COc1ccc2nc(NC(=O)C(NS(=O)(=O)c3cccs3)C(C)C)sc2c1 (configuration not stated)
The z-score of the first is lower: -0.0535 for the first, 0.0812 for the second.

First: CCOC(=O)Cc1cc(-c2ccc(OC)cc2)nc2ccc3ccccc3c12
Second: COc1ccc(CC(=O)O/N=C(\N)Cc2cccc3ccccc23)cc1
The z-score of the first is higher: -0.157 for the first, -0.194 for the second.

First: COC(=O)c1ccc(C2C(Oc3ccccc3C)C(=O)N2CCc2ccc(OC)c(OC)c2)cc1 (configuration not stated)
Second: COc1ccc(CCN(C)Cc2ccc(OC)c(OCc3ccccc3)c2)cc1OC
The z-score of the first is lower: 0.272 for the first, 0.311 for the second.

First: CCN1CCCC1CNC(=O)c1ccc(N2CCCC2=O)cc1 (configuration not stated)
Second: CCN1CCCC1CNC(=O)Cn1ncc2c(=O)oc3ccc(C)cc3c21 (configuration not stated)
The z-score of the first is higher: 1.38 for the first, 0.276 for the second.

Compared with `CCc1nc2cc(C)nn2c2nc3ccccc3n12`, `Cc1cc2nc(C)n3c4ccccc4nc3n2n1` is higher in z-score: 0.527 for the first, 0.628 for the second.

Compared with `Cc1ccc(S(=O)(=O)NNC(=S)NC(=O)c2ccc([N+](=O)[O-])cc2)cc1`, `COc1ccc(C)cc1NS(=O)(=O)c1ccc(NC(=O)CN(c2cc([N+](=O)[O-])ccc2C)S(C)(=O)=O)cc1` is higher in z-score: -0.275 for the first, 0.504 for the second.

First: Cc1sccc1/C=N/NC(=O)c1cccc2ccccc12
Second: Cn1cccc1/C=N/NC(=O)c1sc2ccccc2c1Cl
The z-score of the first is lower: -0.0412 for the first, 1.01 for the second.

Going from `CCOc1ccc(OCC)c(S(=O)(=O)N2CCC(C)CC2)c1` to `CCN(C(=O)C1CCN(S(=O)(=O)c2cccc3nonc23)CC1)c1ccccc1`, the z-score falls from -0.181 to -0.39.

Going from `Cc1ccc(N2C(=O)c3ccccc3C2Nc2cccnc2)nc1` (configuration not stated) to `Cc1ccc(/C(O)=C2/C(=O)C(=O)N(Cc3cccnc3)C2c2ccccn2)cc1` (configuration not stated), the z-score falls from 0.46 to -0.308.

Going from `CCCS(=O)(=O)N1CCCC(C(=O)NCCCN2CCCC2=O)C1` (configuration not stated) to `CCS(=O)(=O)N1CCC(C(=O)NCc2ccco2)CC1`, the z-score falls from 0.225 to 0.0456.

Going from `Cc1ccccc1NC(=O)CSc1nc(Nc2ccccc2)nc(N2CCOCC2)n1` to `Cc1ccccc1NC(=O)CN1CCC(NC(=O)Nc2ccccc2)CC1`, the z-score rises from -0.674 to -0.237.

First: C=CCn1c(COc2cccc(C)c2C)nnc1SCC(=O)N1CCN(c2ccccc2)CC1
Second: CCn1c(N2CCN(C(=O)Nc3ccc(F)cc3)CC2)nc2ccccc21
The z-score of the first is higher: -0.133 for the first, -1.03 for the second.

Going from `O=C(O)CS(=O)(=O)CC(=O)O` to `CCOc1ccccc1/C=C(/NC(=O)c1ccccc1)C(=O)NCC(=O)O`, the z-score rises from -0.0936 to 0.703.

Going from `O=C(O)CCc1nn2c3ccccc3nc2n(CCN2CCCCC2)c1=O` to `O=C(CCN1CCCCC1c1cccnc1)NCc1ccccc1` (configuration not stated), the z-score falls from 0.263 to -0.0612.

First: CC(C)Cn1c(CN(C)Cc2ccccc2)nc2c1c(=O)n(C)c(=O)n2C
Second: N#Cc1cc2c(nc1SCC(O)CS(=O)(=O)Cc1ccccc1)CCCC2 (configuration not stated)
The z-score of the first is higher: -0.14 for the first, -1.27 for the second.

First: O=C(CSc1nc(-c2ccccc2Cl)ns1)c1ccc(Cl)cc1
Second: Cc1cc(-c2ccccc2)nc(SCC(=O)c2cccc([N+](=O)[O-])c2)n1
The z-score of the first is higher: -0.0923 for the first, -0.102 for the second.

Going from `Cc1cc(C)cc(NC(N)=S)c1` to `Cc1cccc(-n2c(C)n[nH]c2=S)c1`, the z-score rises from -0.143 to -0.139.

Going from `O=C(NCCc1ccccc1)C1CCN(S(=O)(=O)c2ccccc2)CC1` to `Cc1c(N(C)C(=O)C2CCCN2S(=O)(=O)c2ccccc2)c(=O)n(-c2ccccc2)n1C` (configuration not stated), the z-score rises from -0.251 to -0.0643.

Going from `Fc1ccc(-c2cc(C(F)(F)F)nc(-n3cncn3)n2)cc1` to `Cn1nc(C(=O)Nc2cccc(C(F)(F)F)c2)ccc1=O`, the z-score rises from -1.14 to -0.12.

First: O=C(NC1CCSC1=O)c1ccc(Oc2ccc(F)cc2)nc1 (configuration not stated)
Second: COc1ccc(C(=O)NNC(=O)CN2CCC(n3nnc4cc(F)ccc43)CC2)cc1
The z-score of the first is higher: -0.0858 for the first, -0.223 for the second.

Compared with `COc1ccc(Cl)cc1S(=O)(=O)N1CCN=C1C`, `Cc1cc(C)nc(/N=C2\NC(=O)CC(C(=O)O)N2c2ccc(Cl)cc2)n1` (configuration not stated) is lower in z-score: -0.0286 for the first, -0.705 for the second.

First: CC(C)c1nc2n[nH]c(N)c2c2c1CSC(C)(C)C2
Second: Cc1cc2nc3c(c(=O)n2[nH]1)CCCC3
The z-score of the first is lower: -0.296 for the first, -0.219 for the second.

Going from `Nc1nc(-c2cccnc2)nn1C(=O)c1ccco1` to `Cc1ccc2c(c1)NC(=O)C(CC(=O)NCc1cccnc1)O2` (configuration not stated), the z-score falls from 0.31 to -0.984.

Compared with `C=CCOc1ccc(CNc2nccs2)cc1OC`, `CCOc1cc(CNCc2cccs2)ccc1OCC(=O)NC(C)(C)C` is higher in z-score: -0.371 for the first, -0.0695 for the second.

First: CSc1nnc(C)c(=O)[nH]1
Second: COc1ccc(-c2nnc(SCC(=O)/C(C#N)=C(\C)N)o2)cc1
The z-score of the first is lower: -0.102 for the first, 0.47 for the second.

Going from `CCCCOc1ccc(NC(=O)CN2CCN(C(=O)OCC)CC2)cc1` to `CC(=O)N1CCN(S(=O)(=O)c2cccc(C(=O)Nc3ccc4c(c3)CCC4)c2)CC1`, the z-score falls from 0.226 to -0.275.

Going from `CC(Cc1cccs1)NC(=O)Nc1ccc(F)cc1` (configuration not stated) to `O=[N+]([O-])c1cnccc1Nc1ccc(F)cc1`, the z-score rises from -0.297 to 0.0228.

Compared with `CCCC(O)(c1ccc(Cl)cc1)C(CN1CCOCC1)c1ccccc1` (configuration not stated), `C=CCC(c1ccccc1F)N(CCN1CCOCC1)C(=O)Nc1cccc(Cl)c1` (configuration not stated) is higher in z-score: 0.163 for the first, 0.497 for the second.

Compared with `O=C(NCC1CCCO1)c1onc(CSc2cccc(Cl)c2)c1C(=O)O` (configuration not stated), `S=c1[nH]nc(-c2ccccc2)n1CC1CCCO1` (configuration not stated) is higher in z-score: -0.115 for the first, 0.274 for the second.

Going from `Cc1cccc(NC(=O)C(=O)NCCCc2ccccc2)c1` to `CCc1ccccc1NC(=O)/C(=C/c1ccco1)c1ccccc1`, the z-score falls from -0.319 to -1.41.

First: CCOC(=O)C1CCN(Cc2ccccc2C)CC1
Second: O=C(Nc1ccccc1Cl)C1CCN(Cc2cnn(-c3ccccc3)c2-n2cccc2)CC1
The z-score of the first is lower: 0.126 for the first, 0.64 for the second.

Compared with `O=c1/c(=C/c2cn(-c3ccccc3)nc2-c2ccc(F)cc2)sc2nc3ccccc3n12`, `Cn1c(C(C#N)/C(=N\S(=O)(=O)c2cccs2)c2ccccc2)nc2ccccc21` (configuration not stated) is higher in z-score: -0.0226 for the first, 0.134 for the second.

Compared with `COc1cc(C)ccc1OCCCCOc1ccccc1C(C)=O`, `COc1ccccc1-n1c(C)nnc1SCC(=O)Nc1cccc(C(C)=O)c1` is higher in z-score: -0.565 for the first, -0.146 for the second.

Going from `COc1ccc(/C(N)=N/OC(=O)CSc2ccc(C)cc2)cc1` to `Cc1ccc(NC(=O)CNc2ccc(Cl)cc2F)cc1`, the z-score falls from 0.344 to -0.328.

Compared with `OCCN(CCO)c1ccc(C(c2ccc(Cl)cc2)c2ccc(N(CCO)CCO)cc2Cl)c(Cl)c1`, `O=C(COC(=O)c1cccnc1Cl)c1ccc(Cl)cc1Cl` is lower in z-score: 0.134 for the first, -0.255 for the second.

First: CC(C)CC(C(=O)Nc1oc(-c2ccccc2)c(-c2ccccc2)c1C#N)N1C(=O)c2ccccc2C1=O (configuration not stated)
Second: O=C(/C=C\c1ccccc1OC(=O)c1ccccc1F)c1cc2ccccc2o1
The z-score of the first is higher: -0.151 for the first, -0.221 for the second.

Going from `COc1ccccc1-c1c(C#N)c(N)nc2c1CCc1ccccc1-2` to `Cc1c(-c2nc(N)nc(Nc3ccc(F)cc3)n2)oc2ccccc12`, the z-score rises from -0.139 to 0.117.

Compared with `Cn1cc(S(=O)(=O)CC(=O)N2CCc3ccccc32)c2ccccc21`, `CC(=O)Nc1ccc(S(=O)(=O)Nc2nc3ccccc3s2)cc1` is higher in z-score: -0.166 for the first, 0.125 for the second.

Compared with `O=c1c2sccc2nc(SCc2cc(=O)n3ccccc3n2)n1-c1ccc(Br)cc1`, `COc1ccc(OC)c(-n2c(SCC(=O)NCc3ccco3)nnc2-c2c[nH]c3ccccc23)c1` is lower in z-score: -0.744 for the first, -1.04 for the second.

Compared with `Cc1cccnc1NC(=S)NC(=O)c1cccs1`, `COCC(=O)N(Cc1ccccc1)c1ccccn1` is higher in z-score: 0.0645 for the first, 1.37 for the second.

Going from `COc1ccc(NC(=O)c2c(C)cc(=O)oc2C)c(OC)c1` to `COCc1cc(C)nc(OCC(=O)N/N=C/c2cccc(OC)c2)c1C#N`, the z-score rises from -0.316 to -0.16.

First: COc1ccc(N2C(=O)CCC(C(=O)N3CCOCC3)C2c2ccc(F)cc2)cc1 (configuration not stated)
Second: COc1cc(C2=NOC(C(=O)N3CCN(c4ccc(F)cc4)CC3)C2)cc(OC)c1OC (configuration not stated)
The z-score of the first is lower: -0.266 for the first, -0.19 for the second.

First: Cc1cc(C)cc(N2CCCn3c2nc2c3c(=O)n(CCN3CCOCC3)c(=O)n2C)c1
Second: Cn1c(=O)oc2cc(S(=O)(=O)N3CCN(Cc4ccc5c(c4)OCO5)CC3)ccc21
The z-score of the first is lower: -0.855 for the first, 0.012 for the second.

Going from `c1ccc(-c2ccc(-c3cn4c(n3)CCC4)cc2)cc1` to `O=C(O)CCC(=O)N1N=C(c2ccccc2)CC1c1ccc2nccnc2c1` (configuration not stated), the z-score rises from -0.138 to 0.396.

First: CCC1(COC(=O)Nc2cccc(Cl)c2)COC1
Second: O=C(Nc1ccc(N2CCCC2)c(Cl)c1)c1ccc([N+](=O)[O-])cc1
The z-score of the first is lower: -0.502 for the first, 0.316 for the second.

Compared with `Cn1c(Cc2csc(N)n2)nnc1SC/C=C/c1ccccc1`, `Cc1cc(NC(=O)CSc2nnc(-c3ccncc3)n2N)ccc1Br` is higher in z-score: -0.411 for the first, 0.324 for the second.

Going from `O=C(c1ccc2c(c1)OCO2)N1CCN(c2ccc(C(F)(F)F)cn2)CC1` to `COc1ccc(-c2cc3ccccc3oc2=O)cc1NC(=S)NC(=O)c1ccc2c(c1)OCCO2`, the z-score falls from 0.271 to 0.101.

Going from `CCCN1CCCc2cc(CN)ccc21` to `CC(=O)c1c(C)oc(C)c1CSCc1ccc(C(=O)O)o1`, the z-score rises from -0.537 to 0.674.

Compared with `CCc1c(C)c2ccc(O)c(CN(C)C)c2oc1=O`, `Cc1ccc(C)c(NS(=O)(=O)c2c(C)ccc3nsnc23)c1` is lower in z-score: -0.539 for the first, -0.891 for the second.

Going from `CC(C)CN(CCC(=O)O)CC(C)C` to `COC(=O)COc1cc(Br)c(/C=C2/SC(=O)N(CC(=O)N3CCCC3)C2=O)cc1OC`, the z-score rises from -0.103 to 0.0962.

Going from `C/C(=N\NC(=O)c1ccccc1O)C1C(=O)c2ccccc2C1=O` to `O=C(N/N=C/C(Br)=C/c1ccccc1)c1n[nH]c2c1CCC2`, the z-score rises from -0.839 to -0.353.

With `N#Cc1nc(COc2ccccc2Cl)oc1NCc1cccnc1` the z-score was 0.291.

`COc1ccc(C2c3ccc4ccccc4c3Oc3ncn(CCN4CCOCC4)c(=N)c32)cc1` (configuration not stated) was tested, and the z-score was active: 4.1.
